The other results are listed elsewhere or left out.
What was measured:
Assay in all cases: glycan array binding signal (z-score within array); higher = stronger binding
Settings in all cases: glycan notation: IUPAC condensed, linker removed
[1] = target: Neu5Ac(a2-3)Gal(b1-4)GlcNAc6S
In short: (§1)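 The binding signal is a Z-score computed within each array and averaged over linkers. Arrays of the same protein sequence at different concentrations or buffers were also averaged together. Data originate from 3228 arrays in the Consortium for Functional Glycomics database, kept only where the protein sequence was available.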

[2] = target: Neu5Ac(a2-3)Gal(b1-4)[Fuc(a1-3)]GlcNAc
In short: as §1

[3] = target: Neu5Ac(a2-3)Gal(b1-4)[Fuc(a1-3)]GlcNAc(b1-3)Gal
In short: as §1

[4] = target: Neu5Ac(a2-3)Gal(b1-4)[Fuc(a1-3)]GlcNAc(b1-3)Gal(b1-4)GlcNAc
In short: as §1

[5] = target: Neu5Ac(a2-3)Gal(b1-4)[Fuc(a1-3)]GlcNAc(b1-3)Gal(b1-4)[Fuc(a1-3)]GlcNAc(b1-3)Gal(b1-4)[Fuc(a1-3)]GlcNAc
In short: as §1

[6] = target: Neu5Ac(a2-3)Gal(b1-4)[Fuc(a1-3)]GlcNAc6S
In short: as §1

[7] = target: Neu5Ac(a2-3)Gal6S(b1-4)GlcNAc
In short: as §1

[8] = target: Neu5Ac(a2-3)Gal6S(b1-4)[Fuc(a1-3)]GlcNAc
In short: as §1

Neu5Ac(a2-3)GalNAc = target: Neu5Ac(a2-3)GalNAc
In short: as §1

[9] = target: Neu5Ac(a2-3)GalNAc(b1-4)GlcNAc
In short: as §1

[10] = target: Neu5Ac(a2-3)[GalNAc(b1-4)]Gal(b1-4)Glc
In short: as §1

[11] = target: Neu5Ac(a2-3)[GalNAc(b1-4)]Gal(b1-4)GlcNAc
In short: as §1

[12] = target: Neu5Ac(a2-3)[Neu5Ac(a2-6)]GalNAc
In short: as §1

Neu5Ac(a2-6)Gal = target: Neu5Ac(a2-6)Gal
In short: as §1

Neu5Ac(a2-6)Gal(b1-4)Glc = target: Neu5Ac(a2-6)Gal(b1-4)Glc
In short: as §1

[13] = target: Neu5Ac(a2-6)Gal(b1-4)GlcNAc
In short: as §1

[14] = target: Neu5Ac(a2-6)Gal(b1-4)GlcNAc(b1-3)Gal(b1-4)GlcNAc
In short: as §1

[15] = target: Neu5Ac(a2-6)Gal(b1-4)GlcNAc(b1-3)Gal(b1-4)[Fuc(a1-3)]GlcNAc(b1-3)Gal(b1-4)[Fuc(a1-3)]GlcNAc
In short: as §1

[16] = target: Neu5Ac(a2-6)Gal(b1-4)GlcNAc6S
In short: as §1

Neu5Ac(a2-6)GalNAc = target: Neu5Ac(a2-6)GalNAc
In short: as §1

[17] = target: Neu5Ac(a2-6)GalNAc(b1-4)GlcNAc
In short: as §1

Neu5Ac(a2-8)Neu5Ac = target: Neu5Ac(a2-8)Neu5Ac
In short: as §1

[18] = target: Neu5Ac(a2-8)Neu5Ac(a2-3)Gal(b1-4)Glc
In short: as §1

[19] = target: Neu5Ac(a2-8)Neu5Ac(a2-3)[GalNAc(b1-4)]Gal(b1-4)Glc
In short: as §1

[20] = target: Neu5Ac(a2-8)Neu5Ac(a2-8)Neu5Ac
In short: as §1

[21] = target: Neu5Ac(a2-8)Neu5Ac(a2-8)Neu5Ac(a2-3)Gal(b1-4)Glc
In short: as §1

[22] = target: Neu5Ac(a2-8)Neu5Ac(a2-8)Neu5Ac(a2-3)[GalNAc(b1-4)]Gal(b1-4)Glc
In short: as §1

[23] = target: Neu5Ac(a2-8)Neu5Ac(a2-8)Neu5Ac(a2-8)Neu5Ac(a2-3)[GalNAc(b1-4)]Gal(b1-4)Glc
In short: as §1

Neu5Ac(b1-6)GalNAc = target: Neu5Ac(b1-6)GalNAc
In short: as §1

[24] = target: Neu5Ac(b2-6)Gal(b1-4)GlcNAc
In short: as §1

[25] = target: Neu5Ac9Ac(a2-6)Gal(b1-4)GlcNAc
In short: as §1

[26] = target: Neu5Gc(a2-3)Gal(b1-3)GlcNAc
In short: as §1

[27] = target: Neu5Gc(a2-3)Gal(b1-3)[Fuc(a1-4)]GlcNAc
In short: as §1

Neu5Gc(a2-3)Gal(b1-4)Glc = target: Neu5Gc(a2-3)Gal(b1-4)Glc
In short: as §1

[28] = target: Neu5Gc(a2-3)Gal(b1-4)GlcNAc
In short: as §1

[29] = target: Neu5Gc(a2-3)Gal(b1-4)[Fuc(a1-3)]GlcNAc
In short: as §1

[30] = target: Neu5Gc(a2-6)Gal(b1-4)GlcNAc
In short: as §1

Neu5Gc(a2-6)GalNAc = target: Neu5Gc(a2-6)GalNAc
In short: as §1

B1: SIGNR8 (Mus musculus) (protein)
chain: MAGEPEFHQSKNHEEEVTSGEQGFAEHDPEGLICSSKSLQGHLTQVPWLLLLLISLGLFLLMLATLVQVSRIRAYSQGQTQDQQGSSSLDKVAVPREQTHSGLEQIQQIQQQLTQFNASLAGLCRPCPWDWELFQGSCYLFSRTLGSWETSASSCEDLGAHLVIVNSVSEQRFMKYWNVRKNQRSWIGLSDHIHEGSWQWVDGSALKFSFWKEGEPNNDGDEDCVELFMDDWNDNKCTEQNFWVCEQPSAPCPHH
[1]
  glycan array binding signal (z-score): -0.403
[2]
  glycan array binding signal (z-score): -0.399
[3]
  glycan array binding signal (z-score): -0.405
[4]
  glycan array binding signal (z-score): -0.38
[5]
  glycan array binding signal (z-score): -0.392
[6]
  glycan array binding signal (z-score): -0.394
[7]
  glycan array binding signal (z-score): -0.377
[8]
  glycan array binding signal (z-score): -0.395
Neu5Ac(a2-3)GalNAc
  glycan array binding signal (z-score): -0.398
[9]
  glycan array binding signal (z-score): -0.4
[10]
  glycan array binding signal (z-score): -0.4
[11]
  glycan array binding signal (z-score): -0.4
[12]
  glycan array binding signal (z-score): -0.387
Neu5Ac(a2-6)Gal
  glycan array binding signal (z-score): -0.395
Neu5Ac(a2-6)Gal(b1-4)Glc
  glycan array binding signal (z-score): -0.394
[13]
  glycan array binding signal (z-score): -0.396
[14]
  glycan array binding signal (z-score): -0.406
[15]
  glycan array binding signal (z-score): -0.398
[16]
  glycan array binding signal (z-score): -0.389
Neu5Ac(a2-6)GalNAc
  glycan array binding signal (z-score): -0.39
[17]
  glycan array binding signal (z-score): -0.401
Neu5Ac(a2-8)Neu5Ac
  glycan array binding signal (z-score): -0.405
[18]
  glycan array binding signal (z-score): -0.378
[19]
  glycan array binding signal (z-score): -0.403
[20]
  glycan array binding signal (z-score): -0.4
[21]
  glycan array binding signal (z-score): -0.381
[22]
  glycan array binding signal (z-score): -0.39
[23]
  glycan array binding signal (z-score): -0.396
Neu5Ac(b1-6)GalNAc
  glycan array binding signal (z-score): -0.392
[24]
  glycan array binding signal (z-score): -0.388
[25]
  glycan array binding signal (z-score): -0.384
[26]
  glycan array binding signal (z-score): -0.396
[27]
  glycan array binding signal (z-score): -0.391
Neu5Gc(a2-3)Gal(b1-4)Glc
  glycan array binding signal (z-score): -0.364
[28]
  glycan array binding signal (z-score): -0.396
[29]
  glycan array binding signal (z-score): -0.389
[30]
  glycan array binding signal (z-score): -0.397
Neu5Gc(a2-6)GalNAc
  glycan array binding signal (z-score): -0.399

— the supplement of paper PMC8728848
